# Out of some 410,000 compounds screened, about 6,400 (1.6%) were called active. The shares of active, inactive and inconclusive entries below differ from those in the screen. The call rests on the fitted dose curve; in most records, active means well fitted inhibition curve with a large enough effect; inconclusive means small, poorly fitted or top-dose-only effect; inactive means no such curve, though single readings can be large or run the other way. No potency is given beside an inconclusive call; the fits are too rough.
# Biological target: Glucagon-like peptide 1 receptor (Homo sapiens) (UniProt P43220)
# Sequence of UniProt P43220 (P43220 whole entry, looked up): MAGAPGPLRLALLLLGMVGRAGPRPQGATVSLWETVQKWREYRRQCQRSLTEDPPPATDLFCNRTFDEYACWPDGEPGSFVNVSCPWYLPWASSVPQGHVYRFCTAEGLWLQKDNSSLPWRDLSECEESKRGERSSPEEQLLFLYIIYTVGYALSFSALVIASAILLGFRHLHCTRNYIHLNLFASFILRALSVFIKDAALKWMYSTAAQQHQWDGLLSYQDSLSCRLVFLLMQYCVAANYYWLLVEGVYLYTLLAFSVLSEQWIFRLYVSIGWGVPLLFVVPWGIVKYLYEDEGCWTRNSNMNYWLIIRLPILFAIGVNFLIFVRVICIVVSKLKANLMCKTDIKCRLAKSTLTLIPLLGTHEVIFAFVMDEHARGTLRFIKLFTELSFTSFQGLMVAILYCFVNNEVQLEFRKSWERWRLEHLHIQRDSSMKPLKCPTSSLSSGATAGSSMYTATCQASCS
# Assay: qHTS of GLP-1 Receptor Inverse Agonists (Inhibition Mode); further: nearly all actives have a fitted effect of over 55% in size
# Conditions: HEK293 GLP-1R CRE-luciferase, luminescence, 24 h, GLP-1R form is constitutively active; series mostly up to 38.3 µM
# How it was run: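 qHTS in 1536-well format: reporter HEK293 cells expressing constitutive GLP-1R activity in DMEM + 10% Nu serum, 24 hr with compounds at 37 deg C, luminescence read after 12 min with detection reagent.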
# Potency means the concentration at half of the fitted maximal effect; tags describe the fitted curve by direction and shape.
row,Structure (SMILES),Potency
1,CC(C)C(C(=O)NC1CCCC1)N(CC1CCCO1)C(=O)CNS(=O)(=O)c1ccc(F)cc1 (stereo not drawn),inactive
2,CCOC(=O)Cc1csc(NC(=O)/C=C/c2ccc(OC)cc2)n1,"inconclusive [inhibitor, partial curve]"
3,CCC1CN(C(=O)N2CCC(C(=O)NCc3ccccc3OC)CC2)c2ccccc2O1 (stereo not drawn),"inconclusive [inhibitor, partial curve, poor fit]"
4,COc1ccccc1CNc1nc(NCc2cccc(OC)c2OC)c2sccc2n1,"inconclusive [inhibitor, single point]"
5,COc1ccc(Cl)cc1C(=O)NNC(=O)CCNS(=O)(=O)c1ccccc1,"inconclusive [inhibitor, full curve, poor fit]"
6,Cc1ccc(NC(=S)NCc2ccc3c(c2)cc(C)n3C)c(C)c1,"inconclusive [inhibitor, single point]"
7,CCc1nc2ccc(C(=O)NC3CCN(Cc4ccccc4)CC3)cn2c1N(C)Cc1cc2ccccc2s1,"inconclusive [inhibitor, single point]"
8,CO[C@@H]1CN(C)C(=O)c2cc(NC(=O)C3CC3)ccc2OC[C@H](C)N(C(=O)CN2CCOCC2)C[C@@H]1C,inactive
9,O=C(Nc1cccc(C(=O)O)c1)/C(=C\c1ccccc1)NC(=O)c1ccc(Br)o1,inactive
10,COc1ccc(CN2CCC(C(=O)Nc3ccc(Oc4cccnc4)cc3)CC2)c(C)c1C,"inconclusive [inhibitor, full curve, poor fit]"
11,CSc1c(SCc2ccccc2)cnn(-c2ccccc2)c1=O,"inconclusive [inhibitor, partial curve, poor fit]"
12,COc1ccc(O)c(/C=N\NC(=O)CCn2nnc3ccccc32)c1,"inconclusive [inhibitor, single point]"
13,O=S(=O)(NC1CCN(Cc2ccccc2)CC1)c1ccc2ccccc2c1,"inconclusive [inhibitor, single point]"
14,COc1cccc(CNC(=O)c2c(C)nn(-c3ccc(F)cc3)c2-n2cccc2)c1,inactive
15,CCc1ccccc1NC(=O)CN(C)C(=O)CSc1nnc(Nc2cccc(C)c2)s1,"inconclusive [inhibitor, partial curve, poor fit]"
16,CCOc1ccc(NC(=O)Nc2nnc(N3CCCCC3C)s2)cc1 (stereo not drawn),"inconclusive [inhibitor, single point]"
17,CCOC(=O)c1sc2ccccc2c1S(=O)(=O)Nc1ccc(OC)c(Cl)c1,"inconclusive [inhibitor, single point]"
18,COc1cccc(/C=N/NC(=O)c2ccncc2)c1OC(=O)c1ccc(Br)cc1,"inconclusive [inhibitor, partial curve, poor fit]"
19,CCN1CCN(C2CCCCC2NS(=O)(=O)c2ccc(Cl)cc2)CC1 (stereo not drawn),"inconclusive [inhibitor, partial curve, poor fit]"
20,O=[N+]([O-])c1ccc(Nc2nc(N/N=C/c3cccc(F)c3)nc(N3CCCC3)n2)cc1,"inconclusive [inhibitor, single point]"
21,CC1=C(C(=O)N(C)C)CC(CC(=O)NC(c2ccccc2)c2ccccc2)C(=O)N1CCC1=CCCCC1 (stereo not drawn),"inconclusive [inhibitor, single point]"

row,Structure (SMILES),Potency
1,c1csc(-c2nc3nc4ccccc4nc3n2Cc2ccc3c(c2)OCO3)c1,"inconclusive [inhibitor, single point]"
2,CCOC(=O)C1(Cc2cccc(Cl)c2)CCCN(CCO)C1 (stereo not drawn),"inconclusive [inhibitor, partial curve, poor fit]"
3,Cc1csc(NC(=O)c2cc([N+](=O)[O-])cc([N+](=O)[O-])c2)n1,inactive
4,Cc1cc(O)c(CN2CCN(S(=O)(=O)c3cccs3)CC2)cc1C(C)C,"inconclusive [inhibitor, single point]"
5,Cc1ccc2ccc3cccnc3c2n1,"inconclusive [inhibitor, partial curve, poor fit]"
6,Cc1ccc(N2C=Nc3ccc(C)c4nc(C)cc2c34)cc1,"inconclusive [inhibitor, single point]"
7,CCOC(=O)C/C(C)=N/NC(=O)CN(c1ccc(Br)cc1)S(=O)(=O)c1ccccc1,"inconclusive [inhibitor, partial curve]"
8,CCN1CCCC1CNC(=O)c1ccc(Sc2ccc(F)cc2)c([N+](=O)[O-])c1 (stereo not drawn),"inconclusive [inhibitor, full curve, poor fit]"
9,Cc1ccc(NC(=O)c2cccc3c(=O)c4c([nH]c23)CCCC4)c(C)c1,"inconclusive [inhibitor, partial curve, poor fit]"
10,CCCc1ccc(C(O)c2ncc(-c3cccc(F)c3)[nH]2)cc1 (stereo not drawn),"inconclusive [inhibitor, single point]"
11,COc1ccc(NC(=O)C2Cc3c(-c4ccc(Cl)cc4)ccnc3O2)cc1 (stereo not drawn),"inconclusive [inhibitor, partial curve, poor fit]"
12,CCOC(=O)c1ccc(N2C(=O)C(O)=C(C(C)=O)C2c2ccccc2)cc1 (stereo not drawn),inactive
13,CCOC(=O)c1sc2nc(NC(=O)C(C)(C)C)sc2c1C,"inconclusive [inhibitor, partial curve, poor fit]"
14,CCOC(=O)Cn1c(=O)oc2cc(S(=O)(=O)N3CCN(c4cccc(Cl)c4)CC3)ccc21,inactive
15,CCOC(=O)c1cccc(OS(=O)(=O)Cc2ccccc2)c1,"inconclusive [inhibitor, single point]"
16,CCCCC(O)(c1ccc(F)cc1)C(CN1CCOCC1)c1ccc(Cl)cc1 (stereo not drawn),active: 2.82 µM
17,O=C(COC(=O)C1(c2ccc(F)cc2)CCCC1)NCc1ccc2c(c1)OCO2,"inconclusive [inhibitor, full curve, poor fit]"
18,CCOc1ccccc1C(=O)NC(C(=O)NCc1ccc(F)cc1)C(C)C (stereo not drawn),"inconclusive [inhibitor, partial curve, poor fit]"
19,COc1cc(NC(=O)C/C(C)=N/NC(=O)Cc2ccc(Cl)cc2)c(OC)cc1Cl,"inconclusive [inhibitor, single point]"
20,Cc1cccc(Cn2ccc(NC(=O)c3ccc4c(c3)OCO4)n2)c1,"inconclusive [inhibitor, partial curve, poor fit]"
21,COc1cccc(N2CCN(C(=O)c3cccc(NC(=O)C4=C(C)OCCS4)c3)CC2)c1,inactive

row,Structure (SMILES),Potency
1,Cc1ccc(C(CCNC(C)c2cccs2)c2ccco2)cc1 (stereo not drawn),"inconclusive [inhibitor, single point]"
2,COc1ccc(-n2c(=O)c3c4c(sc3n(Cc3ccc(F)cc3)c2=O)CN(C(C)=O)CC4)c(OC)c1,inactive
3,CCOC(=O)N1CCC(N2C(=O)c3ccccc3C2Nc2ccc(Cl)cn2)CC1 (stereo not drawn),"inconclusive [inhibitor, full curve]"
4,CCC(CC)C(=O)N1c2ccccc2C(C)(c2ccccc2)CC1(C)C (stereo not drawn),"inconclusive [inhibitor, full curve, poor fit]"
5,COC(=O)CN1C(=O)CSc2ccc(S(=O)(=O)Nc3ccc(F)c(Cl)c3)cc21,inactive
6,Cc1ccc(-c2cc3cccc[n+]3cc2-c2ccc(C)cc2)cc1,inactive
7,CN(Cc1ccccc1)CC(O)COc1ccc(CNCCc2ccncc2)cc1 (stereo not drawn),"inconclusive [inhibitor, partial curve, poor fit]"
8,NNC(=O)c1cccc(COc2cccc(Br)c2)c1,inactive
9,Cc1cccnc1C(NC(=O)C1CCN(Cc2ccc(Cl)c(Cl)c2)CC1)c1ccc(Cl)cc1 (stereo not drawn),"inconclusive [inhibitor, single point]"
10,Cc1ccsc1/C=N/NC(=O)Cc1ccc([N+](=O)[O-])cc1,inactive
11,COc1ccc(-c2[nH]ncc2CN2CCCC(C(=O)c3cccc(OC)c3)C2)cc1 (stereo not drawn),"inconclusive [inhibitor, partial curve, poor fit]"
12,CCn1c(SCC(=O)Nc2nc(-c3ccccc3)cs2)nnc1-c1ccccc1O,"inconclusive [inhibitor, partial curve, poor fit]"
13,O=S(=O)(c1ccc2nc(-c3ccccc3)[nH]c2c1)N1CCN(c2ccc(Cl)cc2)CC1,"inconclusive [inhibitor, partial curve, poor fit]"
14,Cc1ccc(C(=O)N/N=C2\CCSC2)cc1[N+](=O)[O-],inactive
15,O=C(Cn1cc(S(=O)(=O)Cc2cccc(Cl)c2)c2ccccc21)Nc1ccccc1C(F)(F)F,inactive
16,Cc1ccc(OCC(=O)N(C)CC(=O)Nc2cccc(F)c2)cc1,"inconclusive [inhibitor, partial curve, poor fit]"
17,O=C(CSc1nc2c([nH]c3ccccc32)c(=O)n1-c1cccc(Cl)c1)N1CCCC1,inactive
18,COc1cnn(-c2ccc(C)cc2)c(=O)c1SCc1ccccc1,"inconclusive [inhibitor, single point]"
19,CCOC(=O)CCSc1nc(-c2ccccc2)cc(C(F)(F)F)n1,"inconclusive [inhibitor, single point]"
20,CS(=O)(=O)N1CCN(c2ccccc2NC(=O)c2cc3ccccc3o2)CC1,"inconclusive [inhibitor, partial curve, poor fit]"
21,CC(C)(C)c1ccc(NNC(=O)C2CCC2)cc1,"inconclusive [inhibitor, partial curve, poor fit]"

# Reference: PubChem BioAssay AID624417 (National Center for Advancing Translational Sciences (NCATS), 2012)
